Reference: the supplement of paper PMC10126150
Sequences with one replicate were seen in a single cluster, so their values are uncertain.

System: ATP
Assay: switch fluorescence ratio, 500 uM ATP over buffer (Cy3 cluster intensity, sum of 5 cycles each) (fold (ratio)); higher = stronger signal-on switching upon ATP binding; sequences stand for … in TCGTCGGCAGCGTCAGATGTGTATAAGAGACAGTTTTTTTTTTTTTTTTTTTTTTTTT…TC
Details: aptamer strand: ATP DNA aptamer (quencher-CACCTGGGGGAGTATTGCGGAGGAAGG + anchor), 100 nM annealed; ATP concentration: 500 uM; one replicate
Procedure, shortened: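 After annealing to 100 nM quencher-labelled ATP aptamer, Cy3-labelled switching-strand clusters on a modified Illumina MiSeq flow-cell were imaged in selection buffer. A second image followed after 15 min with 500 uM ATP at 22 °C, and five such buffer/ATP cycles were done, each separated by NaOH stripping and re-annealing. The fluorescence ratio, averaged per switch-domain sequence, is summed target-cycle over summed buffer-cycle Cy3 intensity per cluster, with clusters outside 100-1000 RFU excluded.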
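Further: ATP exposure 15 min at 22 °C before imaging.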

| Sequence | switch fluorescence ratio |
| --- | --- |
| ATTCTGTGCG | 0.994 |
| ACTTCGAGT | 1.05 |
| CACAGGAAGA | 1.05 |
| AAACGGCGCG | 1.04 |
| CCCCGCTTCA | 3.29 |
| GCCGTAAAGC | 1.05 |
| GATAGTACTG | 1.05 |
| GTAGTTGGCC | 0.988 |
| CTAAAAATGT | 1.27 |
| CGACTACGGA | 1.06 |
| GCTATTCTTG | 1 |
| ATAATACGTC | 1.03 |
| GGTCAAGAAA | 0.948 |
| TTGCTTTT | 0.984 |
| GTGTAGAGTA | 1.01 |
| GTTGCTGCGC | 1.08 |
| GCCCGTGTCA | 1.01 |
| AGACGGGAAT | 0.979 |
| TGCATCGTCG | 1.2 |
| CTGGGTATGG | 0.961 |
| CGGTTAGCCT | 1.02 |
| GAGCCAAGAT | 1.08 |
| CTCCATCGTT | 1.04 |

| Sequence | switch fluorescence ratio |
| --- | --- |
| GAGGGGGTGT | 1.02 |
| AAAGCGGGTG | 1.09 |
| GCGGTCGGGG | 1.13 |
| TACCAATTGA | 1.01 |
| TAGGGTTAGG | 0.961 |
| TAAAGTTCGT | 1.01 |
| GACTTTAAAC | 0.99 |
| TGATCGGCCC | 0.995 |
| TGCCAGTTGA | 1.04 |
| CGCGTGCGCC | 1.01 |
| TCGGCGATGC | 2.06 |
| TCCTCTGCCT | 4.75 |
| CCAGAAATTT | 0.992 |
| CTAATGGACG | 1.01 |
| TTCAGCTGCG | 1.02 |
| TTTGATCCTC | 1 |
| CGGGTCCAGG | 1.41 |
| CGTACATGGC | 1.09 |
| CGGGACCCCA | 1.01 |
| CGATGTATAG | 1.04 |
| ACGCCTGACA | 1.15 |
| ATATCGGAAT | 0.993 |
| GATACTCATC | 0.984 |

| Sequence | switch fluorescence ratio |
| --- | --- |
| AGCTTTAGAA | 0.983 |
| ACGCGGTAAA | 1.02 |
| GATGCCTACG | 1.06 |
| CTCAATATCT | 1.06 |
| GCGGGAGAAC | 1.03 |
| GGTTTGGA | 0.956 |
| TTCGTTCGGA | 0.962 |
| GTTTCCTATA | 0.972 |
| CGTATTTGGC | 1.03 |
| GGGAACGATG | 1.02 |
| GGTCCGCCCG | 1 |
| GTCATAGCCT | 1.06 |
| CTGAATGCCT | 1.37 |
| AACGGTTCAC | 1.09 |
| CGTGTGAAA | 1.02 |
| GGAATAATC | 1 |
| ATTGGACTGT | 1.05 |
| ATCTCAAGTG | 0.964 |
| CTAAGCTTGC | 0.991 |
| TTCTTGAAAA | 0.975 |
| TTTGCTTACA | 1.03 |
| GATTCGTACA | 0.98 |
| GCGGTCAGAG | 1.01 |

| Sequence | switch fluorescence ratio |
| --- | --- |
| TTATCCA | 0.951 |
| ATAGGGACG | 1.09 |
| CTCGGGGTTC | 0.946 |
| TGATGCTCG | 0.968 |
| GGCGCCGATC | 1.03 |
| GCATCTTCCT | 1.48 |
| GATCATTGGG | 0.959 |
| CGCTCTAGCC | 1.08 |
| CAGCGTATTA | 1.02 |
| AAGGACATCG | 1.07 |
| TCAGGTCAAG | 1 |
| TGCGTCATAA | 1.03 |
| TTCTGTGCTT | 0.96 |
| GGTGAATCAT | 0.985 |
| TTTACTTCAG | 1.01 |
| CGAGATGG | 1 |
| GCAAATGAAT | 0.96 |
| CCTGCTTGCT | 1.07 |
| ACGTTGAGA | 1.01 |
| GTGGGGATAG | 0.938 |
| CCAGATCATA | 0.98 |
| CAACCACATT | 1.03 |
| GTTTTAGACG | 0.903 |

| Sequence | switch fluorescence ratio |
| --- | --- |
| GTTACGTGCC | 1.07 |
| CGAACACGTA | 1.17 |
| TGCACTGCAT | 1.04 |
| TTTCTAGCTA | 1.05 |
| GGGGCTACAC | 0.982 |
| CTTAGGG | 0.992 |
| GGCTAGGCGC | 0.974 |
| GGATTCGTGC | 1.01 |
| TCCCCTAAAG | 0.99 |
| GGTGGGTGG | 0.997 |
| CTGCAGGGTA | 1.11 |
| CCAGTCAAAA | 1.03 |
| AAGTCTAAAA | 1.07 |
| GATAGAATCT | 1.03 |
| AGCTCTGCGG | 0.955 |
| TCTTAACCCG | 0.98 |
| TTCAGCGGCC | 1.03 |
| CGGACACAAA | 1.31 |
| ACCCGTCGGC | 1.01 |
| TATCGTCGCT | 1.01 |
| TGGCGTGAAC | 0.996 |
| GCTTATGAAA | 0.984 |
| CACGGTCAGG | 1.06 |

| Sequence | switch fluorescence ratio |
| --- | --- |
| CTATCCGTTT | 1.02 |
| CGTTTTATAT | 1.01 |
| TCCCGGGTTC | 1 |
| TGCTGACAGA | 0.976 |
| GATGGTACTG | 0.996 |
| GATAGAAACA | 1.02 |
| GGTGCGCTCG | 0.965 |
| GGTCTTTACT | 1.03 |
| ATTTCTGGGC | 0.971 |
| AGCTATGTT | 1.03 |
| GCCTGCTGAC | 1.24 |
| ATTGGCCCCC | 1.12 |
| ATATCATCAA | 0.967 |
| CACGGCCGGG | 1.02 |
| TAAGTCACAA | 1.09 |
| TGCGGGATCC | 1.11 |
| CGCAGGGACT | 1.48 |
| TATTTTTTT | 1 |
| TTATCCGTGA | 1.18 |
| GTGCACGGGA | 0.99 |
| GGGCTGCAAA | 0.972 |
| TCGGTAGCT | 1.03 |
| AGTCGTGCGA | 1.01 |

| Sequence | switch fluorescence ratio |
| --- | --- |
| ACGATCCTGG | 1.38 |
| CGTGACCACA | 1.02 |
| TTGTGCGGCG | 1.01 |
| GATGATCGGC | 0.955 |
| CACATACAAC | 1.3 |
| ATCTGACTTA | 1.05 |
| GGGGTTAAGC | 0.975 |
| TTATAGCCCG | 1.05 |
| ATCGCCACTG | 1.07 |
| AAACGCTCAC | 1.68 |
| ATTGTTGGAG | 0.974 |
| GACCTCACCA | 1.2 |
| TCTGAGGGG | 0.981 |
| TTATACGCCT | 1.05 |
| AATATGTAGG | 1.05 |
| TAATAATTTC | 0.969 |
| TTATATACCC | 1.02 |
| GCTTGCTCTA | 1.02 |
| GTGATGGTTG | 0.993 |
| TGCCCGGCGA | 1.21 |
